Data taken from PubChem BioAssay AID485344 (National Center for Advancing Translational Sciences (NCATS), 2010).
Among all 340,000 compounds or so, about 6,900 (2%) were called active. Cut-off read from the data, not from the text of the source: active = inhibition above about 30%; inactive = below that, where a call was filed. This is a selection; strong and weak results do not stand in their true shares. Entries without a call were filed so in the source.
Note: 0% is about no effect.

Each molecule was assayed against D(2) dopamine receptor (Homo sapiens) (UniProt P14416) (assay: HTS Assay for Allosteric Antagonists of the Human D2 Dopamine Receptor: Primary Screen for Antagonists). Details: HEK293 TREx D2 cells, calcium flux, dopamine EC80; at 10 µM; stronger effect = higher value.
Sequence of UniProt P14416 (P14416 whole entry, looked up): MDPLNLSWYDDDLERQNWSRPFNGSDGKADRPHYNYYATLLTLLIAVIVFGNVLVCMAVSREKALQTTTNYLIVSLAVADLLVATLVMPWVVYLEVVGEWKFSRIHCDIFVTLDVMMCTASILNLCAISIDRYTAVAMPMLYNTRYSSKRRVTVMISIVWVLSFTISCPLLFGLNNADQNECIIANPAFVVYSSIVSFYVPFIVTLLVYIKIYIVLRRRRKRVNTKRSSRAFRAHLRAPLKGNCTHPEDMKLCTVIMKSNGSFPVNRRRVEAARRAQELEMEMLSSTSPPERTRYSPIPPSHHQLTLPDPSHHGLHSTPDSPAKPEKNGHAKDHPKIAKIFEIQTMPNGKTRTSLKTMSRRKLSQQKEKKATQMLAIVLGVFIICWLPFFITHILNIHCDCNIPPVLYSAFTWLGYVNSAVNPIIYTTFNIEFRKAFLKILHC
Method in brief: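 Antagonism is scored as inhibition of an EC80 dopamine-evoked calcium signal in a force-coupled, tetracycline-inducible HEK293 T-REx D2 line, with compound present 180 s before agonist.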
`Cc1ccc(NC(=O)C(=O)c2cc(C)n(-c3ccc(F)cc3)c2C)cc1C` was tested, and the inhibition was 20.7%. For `CCOc1ccc(NC(=O)C2CCCN(S(=O)(=O)c3ccc4[nH]c(=O)ccc4c3)C2)cc1` (centres undefined), the inhibition was 9.3%. In the case of `COc1cccc(-n2ccn(CC(=O)c3ccc(F)cc3)c(=O)c2=O)c1`, the inhibition is reported as -18.5%. `COc1ccccc1N1CCN(C(=O)CSc2nc3ccccc3nc2Cc2ccccc2)CC1` gave an inhibition of 12.7%. For `O=C(Cc1noc2ccccc12)NNC(=S)Nc1ccc(Cl)cc1`, the inhibition was active: 48.4%. Work on `Cc1ccc(CSC2=Nc3ccccc3C3=NC(CC(=O)NC4CCCCC4)C(=O)N23)cc1` (centres undefined) yielded an inhibition of -14.1%. `COc1ccc(CNC(=O)c2cc(Nc3ccc(C)cc3C)nc3ccccc23)cc1` showed an inhibition of -1.29%. In the case of `CCCN(CCC)S(=O)(=O)c1ccc2c(c1)N(CC(=O)NC(C)c1ccccc1)C(=O)CS2` (centres undefined), the inhibition is reported as -12.1%. Work on `CCOc1ccc(NC(=O)c2oc3ccccc3c2NC(=O)c2c(F)cccc2F)cc1` yielded an inhibition of -7.24%. Molecule `Cc1ccc2nc(CNC(=O)c3ccccc3)[nH]c2c1` has an inhibition of -7.22%. `Cc1cccc(-c2noc(CSc3nc(-c4ccc(F)cc4)cc(=O)[nH]3)n2)c1` was tested, and the inhibition was 7.52%. For `COc1ccc(CCNC(=O)C(=O)NCC(c2ccc3c(c2)OCO3)N2CCOCC2)cc1OC` (centres undefined), the inhibition was 8.39%. With `Cc1cccn2c(=O)c(C(=O)NCCc3ccccc3)c(O)nc12` the inhibition was 11.6%. `O=C(Nc1c(C(=O)N2CCN(c3ccccc3)CC2)oc2ccccc12)c1ccco1` was tested, and the inhibition was 23.2%. Molecule `CC(C)C(=O)NCC(c1ccc2c(c1)OCO2)N1CCN(c2ccccc2)CC1` (centres undefined) has an inhibition of -15.4%. Molecule `Cc1c(C(=O)NCCc2ccc(Cl)cc2)sc2nc3n(c(=O)c12)CCCC3` has an inhibition of -18.6%. With `O=C(Nc1ccc(F)cc1)C1(S(=O)(=O)c2ccc(Cl)cc2)CC1` the inhibition was active: 36.9%. `Cc1ccccc1CN1c2ccccc2-c2nc(SCC(=O)NCc3ccccc3)ncc2S1(=O)=O` showed an inhibition of 3.34%. `CCC(C)c1ccc(S(=O)(=O)N2CCN(CC(O)COCC3CCCO3)CC2)cc1` (centres undefined) was tested, and the inhibition was active: 33.2%. With `CCOCCCN(Cc1ccco1)S(=O)(=O)c1cc2c(cc1C)NC(=O)CO2` the inhibition was -0.535%. With `COc1ccc(-n2ncc(C(=O)Nc3cccc(C(F)(F)F)c3)c2C2CCN(C(=O)OC(C)(C)C)CC2)cc1` the inhibition was -1.2%. `OC(CNCc1ccc(Cl)cc1)COc1ccccc1` (centres undefined) was tested, and the inhibition was active: 49%. `Cc1ccc(C2=Nc3ccccc3N(CC(=O)NCc3ccccc3Cl)C(=O)C2)cc1C` showed an inhibition of 8.24%. `COc1ccc(N2Cc3cccc(C(=O)Nc4ccc(F)cc4)c3C2=O)cc1` was tested, and the inhibition was 4.85%. In the case of `COc1ccc(C)cc1NS(=O)(=O)c1cc2c3c(c1)CC(=O)N3CCC2`, the inhibition is reported as 20.4%. With `COc1ccc(NC(=O)CSc2nc3nc(C)c(Cc4ccccc4Cl)c(C)n3n2)cc1OC` the inhibition was 10.6%. Molecule `CCn1c(=N)c(C(=O)NC2CCCCC2)cc2c(=O)n3cc(C)ccc3nc21` has an inhibition of 3.07%. With `COc1ccc(-n2c(=O)c3ccccc3n(CC(=O)NCCc3ccc(OC)c(OC)c3)c2=O)cc1` the inhibition was 1.6%. In the case of `Cc1ccccc1CCNC(=O)c1cc2cc(S(=O)(=O)N3CCCCC3)ccc2n1C`, the inhibition is reported as -15.4%. For `COc1ccc(Cl)cc1NC(=O)CCCN1C(=O)C(c2ccccc2)Oc2cccnc21` (centres undefined), the inhibition was -7.44%. `COc1ccc(NC(=O)c2cc3c(=O)n(Cc4cccnc4)ccc3nc2C)cc1OC` was tested, and the inhibition was 2.55%. In the case of `COc1cc2c(cc1OC)C(COc1cc(C)cc(C)c1)N(C(=O)COc1ccccc1)CC2` (centres undefined), the inhibition is reported as -15.4%. `CCN(CC)c1ccc(NC(=O)c2sc3nc4c(cc3c2N)CN(C)CC4)cc1` showed an inhibition of -4.58%. `CCn1c(C(=O)N2CCCC(C(=O)N3CCN(c4cc(C)ccc4C)CC3)C2)cc2sccc21` (centres undefined) was tested, and the inhibition was -2.73%. `CN(C(=O)CCS(=O)(=O)c1cc2c(cc1Cl)NC(=O)CO2)C1CCCCC1` was tested, and the inhibition was 11.2%. With `Cc1ccc(NC(=O)C2CCC(N3C(=O)C4CCCCC4C3=O)CC2)cc1` (centres undefined) the inhibition was active: 42.8%. Molecule `Cc1nncn1-c1ccc(C(=O)Nc2cc(F)ccc2F)cc1` has an inhibition of -3.52%. With `CCCCN1CCCC1CNC(=O)c1cc(C#N)c2ccccc2c1OC` (centres undefined) the inhibition was active: 84.4%. With `Cc1ccc(CCNC(=O)CCS(=O)(=O)c2cc3c(cc2C)NC(=O)CO3)cc1` the inhibition was active: 42.6%. For `O=C1CN(C(=O)c2ccc(S(=O)(=O)N3CCCC3)cc2)C(c2ccccc2)c2cc(Br)ccc2N1` (centres undefined), the inhibition was 0.829%. For `CCOc1ccc(-c2nnc(SCC(=O)NCc3ccccc3)o2)cc1`, the inhibition was -3.5%. `Cc1ccc(NC(=O)CN2CCSc3ccc(S(=O)(=O)N4CCCC4)cc32)cc1C` gave an inhibition of -14.3%. In the case of `CC(C)(C)C(=O)NC1(C(F)(F)F)C(=O)Nc2c1c(=O)[nH]c(=O)n2-c1ccccc1` (centres undefined), the inhibition is reported as -13.4%. `Cc1nnc(N2CCC(C(=O)NCCc3ccccc3)CC2)c2nn(-c3ccc(Cl)cc3)c(C)c12` gave an inhibition of 12.5%. `COc1cc(OC)c(NS(=O)(=O)c2cc(-c3cnc(C4CC4)o3)ccc2C)cc1Cl` was tested, and the inhibition was -12.4%. `CCOc1ccc(-n2nc3cc(C)c(NC(=O)c4cc(OCC)c(OCC)c(OCC)c4)cc3n2)cc1` showed an inhibition of -23.5%. For `Cc1cc2c(cc1S(=O)(=O)CCC(=O)NCCc1ccccc1)OCC(=O)N2`, the inhibition was -3.35%. In the case of `CC(C)C(c1nnnn1Cc1ccc(F)cc1)N1CCN(C2CCCC2)CC1` (centres undefined), the inhibition is reported as active: 55.9%. With `CCC1CN(C(=O)Nc2ccc(C)c(F)c2)c2ccccc2S1` (centres undefined) the inhibition was -2.76%. In the case of `COc1ccc(-c2cn3cccnc3n2)cc1NC(=O)c1cc(C)cc(C)c1`, the inhibition is reported as -4.83%. Molecule `Cc1cc(Cl)ccc1OCC(=O)N(Cc1ccco1)Cc1ccco1` has an inhibition of -24.2%. Work on `Cc1ccc(-n2ncc(C(=O)N3CCN(c4ccc(Cl)cc4)CC3)c2C2CCN(C(=O)OC(C)(C)C)CC2)c(C)c1` yielded an inhibition of 10.4%. `COc1ccc(-c2nnc(C3CCN(S(=O)(=O)c4ccc(C)c(C)c4)CC3)o2)cc1` was tested, and the inhibition was -5.82%. Molecule `COc1ccc(CCNC(=O)CCc2c(C)c3cc4c(C)coc4c(C)c3oc2=O)cc1OC` has an inhibition of 15.5%. For `CC(O)CNc1nc2c(c(=O)n(Cc3ccc(Cl)cc3)c(=O)n2C)n1C` (centres undefined), the inhibition was -16.5%. Work on `CCOC(=O)c1ccc(NC(=O)c2ccc(=O)n(Cc3cccc(C)c3)c2)cc1` yielded an inhibition of 9.76%. `CCOc1ccc(-c2cc(-c3nc(-c4ccc(OC)c(OC)c4)no3)[nH]n2)cc1` was tested, and the inhibition was -4.14%. `Cc1ccccc1CSc1ncc(CO)n1Cc1ccc(F)cc1` showed an inhibition of 5.28%. With `COc1ccc(Cc2nc3ccccc3n2Cc2ccccc2F)cc1` the inhibition was 10.7%. For `OC(COc1ccccc1Cl)CN1CCN(CC(O)COc2ccccc2Cl)CC1` (centres undefined), the inhibition was active: 70.2%. Molecule `CCN(C(=O)Cn1cnc2sc(C)c(S(=O)(=O)N3CCN(c4ncccn4)CC3)c2c1=O)c1ccccc1F` has an inhibition of 10.7%. With `COC(=O)Cn1c(CN2CCN(c3ccc(F)cc3)CC2)nc2c1c(=O)n(C)c(=O)n2C` the inhibition was active: 30.4%. For `CCC(C)NC(=O)C1=CC(c2ccc3c(c2)OCO3)=NS(=O)(=O)N1C` (centres undefined), the inhibition was 14%. Work on `COC(=O)c1cc(NC(=O)Cn2nc(-c3ccc(C)c(C)c3)ccc2=O)cc(C(=O)OC)c1` yielded an inhibition of 8.62%. `CC(C)(C)c1ccc(C(=O)N2CCCCC2CCN2CCCCC2)cc1` (centres undefined) gave an inhibition of -25.6%. `COc1cccc2c1Oc1ncccc1N(C(=O)CCC(=O)NCc1ccccc1Cl)C2` was tested, and the inhibition was 8.16%. Work on `O=C(CN1C(=O)COc2ccc(S(=O)(=O)Nc3ccccc3)cc21)Nc1cccc(Cl)c1` yielded an inhibition of 7.94%. `COC(=O)c1ccc(Cn2nnc3c(=O)[nH]c(C4CCCN(S(=O)(=O)c5cccc(Cl)c5)C4)nc32)cc1` (centres undefined) gave an inhibition of 8.77%. `COc1ccc2c(c1)cc1c(=O)n(CC(=O)NCCCc3ccccc3)nc(C)n12` gave an inhibition of 4.82%. In the case of `COc1cccc(CNCc2cccc(Br)c2)c1OC`, the inhibition is reported as active: 35.7%. `O=C(Nc1ccc(Br)cc1F)N1CCC2(CC1)Oc1ccccc1C(=O)N2Cc1ccccc1F` gave an inhibition of 11.5%. With `COc1ccc(N2CCN(c3nc4ccc(C)cc4n4nnnc34)CC2)cc1` the inhibition was 5.34%. Work on `COc1ccc2occ(CC(=O)Nc3ccc(S(=O)(=O)Nc4nc(C)cc(C)n4)cc3)c2c1` yielded an inhibition of -8.16%. `COc1ccc(C2C(C(=O)Nc3ccc(C)cc3C)=C(C)Nc3nc4ccccc4n32)c(OC)c1` (centres undefined) showed an inhibition of 3.13%. For `O=C1CSC2(C(=O)N(Cc3ccccc3)c3ccccc32)N1c1ccc(Cl)cc1` (centres undefined), the inhibition was -2.53%. `CSc1cccc(NS(=O)(=O)c2cn(C)c(C)n2)c1` gave an inhibition of -13.4%. `Cn1cnc(S(=O)(=O)N2CCC(C(=O)N3CCN(c4ccccc4F)CC3)CC2)c1` showed an inhibition of 11.3%. With `CCOc1ccc(NC(=O)c2cc(=O)c3ccc(C)c(C)c3o2)cc1` the inhibition was -12%. `Cc1cc(C)cc(NS(=O)(=O)c2ccc3[nH]cc(C(=O)NCc4ccccc4Cl)c(=O)c3c2)c1` gave an inhibition of 4.53%. `Cc1ccc(-c2nc(Cn3c(=O)cc(-c4ccccc4)c4c(C)nn(C)c43)c(C)o2)cc1` showed an inhibition of 21.8%. Molecule `COc1cc(NC(=O)Cn2c(=O)n(Cc3ccco3)c(=O)c3oc4ccccc4c32)cc(OC)c1` has an inhibition of -2.13%. Molecule `O=C(CSc1nnc(-c2ccc([N+](=O)[O-])cc2)o1)Nc1ccccc1` has an inhibition of -21.5%. With `CN(C)S(=O)(=O)c1cccc(C(=O)Nc2ccccc2)c1` the inhibition was active: 47%. `Cc1ccc(OCCn2nnc3sc4c(c3c2=O)CCC(C)C4)cc1` (centres undefined) gave an inhibition of 16.9%. `CN(C1CCCCC1)S(=O)(=O)c1ccc2c(c1)c(=O)c(C(=O)N1CCN(c3ccccc3F)CC1)cn2C` was tested, and the inhibition was 2.28%. Work on `CCc1c(-c2ccccc2)nc2ccccc2c1C(=O)NCc1ccc(C)cc1` yielded an inhibition of 20.2%. For `CCOc1ccc(C(=O)N2CCC(c3noc(-c4ccc(S(=O)(=O)N5CCCC5)cc4)n3)CC2)cc1`, the inhibition was 9.99%. Molecule `CCC(=O)Nc1nnc(S(=O)(=O)N2CCc3ccccc32)s1` has an inhibition of 18.6%. For `CCOC(=O)C1(CCOc2ccccc2)CCN(CCCn2cccn2)CC1`, the inhibition was active: 76.8%. `O=[N+]([O-])c1ccccc1/C=C/CN1CCCCC1` was tested, and the inhibition was active: 36.4%. For `COc1ccc(C2Nc3ccccc3C(=O)N2c2ccccc2)cc1CN1CCOCC1` (centres undefined), the inhibition was active: 30.1%. In the case of `COC(=O)c1cc2occc2n1Cc1nc(-c2ccc(C)cc2)oc1C`, the inhibition is reported as -7.1%. With `COc1ccc(NC(=O)CSc2nc(O)c(Cc3ccccc3)c(=O)[nH]2)cc1` the inhibition was active: 52.6%. With `COc1cccc(OC)c1OCCCNC1CCCC1` the inhibition was active: 47.7%.
